# Some of the results follow.
# B1: PhoQ; a variant is named by its letters at X, in order, P23837 (parent)
# chain: MKKLLRLFFPLSLRVRFLLATAAVVLVLSLAYGMVALIGYSVSFDKTTFRLLRGESNLFYTLAKWENNKLHVELPENIDKQSPTMTLIYDENGQLLWAQRDVPWLMKMIQPDWLKSNGFHEIEADVNDTSLLLSGDHSIQQQLQEVREDDDDAEMTHSVAVNVYPATSRMPKLTIVVVDTIPVELKSSYMVWSWFIYVLSANLLLVIPLLWVAAWWSLRPIEALAKEVRELEEHNRELLNPATTRELTSLVRNLNRLLKSERERYDKYRTTLTDLTHSLKTPLXXLQXXLRSLRSEKMSVSDAEPVMLEQISRISQQIGYYLHRASMRGGTLLSRELHPVAPLLDNLTSALNKVYQRKGVNISLDISPEISFVGEQNDFVEVMGNVLDNACKYCLEFVEISARQTDEHLYIVVEDDGPGIPLSKREVIFDRGQRVDTLRPGQGVGLAVAREITEQYEGKIVAGESMLGGARMEVIFGRQHSAPKDE
# Variants of: B1
# Assay: enrichment ratio after two sorts for PhoP signalling (ratio (wild type AVST 3.29)); higher = more functional
# Settings: with PhoP (E. coli)
row,Variant,enrichment ratio
1,VPIE,≤ 0.25
2,NDQF,≤ 0.25
3,PRYV,≤ 0.25
4,RMQD,≤ 0.25
5,GDFA,≤ 0.25
6,LSLL,8.24
7,PCQY,≤ 0.25
8,TVPP,≤ 0.25
9,TTKL,≤ 0.25
10,RFGG,≤ 0.25
11,FMSW,≤ 0.25
12,QYDW,≤ 0.25
13,ACMH,6
14,TKHF,≤ 0.25
15,YWSE,≤ 0.25
16,NKRE,≤ 0.25
17,PDVQ,≤ 0.25
18,RGFP,≤ 0.25
19,YVWY,≤ 0.25
20,SIIF,0.435
21,YVDP,≤ 0.25
22,AKHK,≤ 0.25
23,SLDN,≤ 0.25
24,RYHW,≤ 0.25
25,PVRA,≤ 0.25
26,KYIY,≤ 0.25

row,Variant,enrichment ratio
1,SGEP,≤ 0.25
2,MVKW,≤ 0.25
3,QHPY,≤ 0.25
4,SQYW,≤ 0.25
5,KDPS,≤ 0.25
6,PRPS,≤ 0.25
7,YPYE,≤ 0.25
8,VNGK,≤ 0.25
9,ASCF,9.91
10,SPVL,≤ 0.25
11,VNWM,≤ 0.25
12,LVLA,≤ 0.25
13,GCGN,≤ 0.25
14,VKFP,≤ 0.25
15,QTSM,5.94
16,KIEM,≤ 0.25
17,SVWS,≤ 0.25
18,YERC,≤ 0.25
19,IFFR,≤ 0.25
20,FMTT,≤ 0.25
21,KHQC,≤ 0.25
22,HDWA,≤ 0.25
23,WDMH,≤ 0.25
24,GDCP,≤ 0.25
25,YKLG,≤ 0.25
26,NGSC,≤ 0.25

row,Variant,enrichment ratio
1,CFRD,≤ 0.25
2,TNAF,1.98
3,HDIW,≤ 0.25
4,SNRE,≤ 0.25
5,SHIN,≤ 0.25
6,EAFL,≤ 0.25
7,RYKL,≤ 0.25
8,EFGF,≤ 0.25
9,PDEF,≤ 0.25
10,QWLQ,≤ 0.25
11,TRYR,≤ 0.25
12,TAYI,10.2
13,IYTR,≤ 0.25
14,LVTQ,≤ 0.25
15,IPKI,≤ 0.25
16,KAGR,≤ 0.25
17,TRFQ,≤ 0.25
18,WNWH,≤ 0.25
19,AICI,16.9
20,CISV,0.57
21,VNNP,≤ 0.25
22,VMHV,≤ 0.25
23,FKCS,≤ 0.25
24,MTVR,≤ 0.25
25,QNHC,≤ 0.25
26,WQVW,≤ 0.25

row,Variant,enrichment ratio
1,RVTK,≤ 0.25
2,AVSR,9.39
3,YKYP,≤ 0.25
4,MDGE,≤ 0.25
5,WCVG,≤ 0.25
6,KPYM,≤ 0.25
7,AKEP,≤ 0.25
8,IWLR,≤ 0.25
9,QYPI,≤ 0.25
10,WREQ,≤ 0.25
11,MMTH,≤ 0.25
12,RSST,≤ 0.25
13,ASVI,5.75
14,RTWY,≤ 0.25
15,AEDR,≤ 0.25
16,LAYY,≤ 0.25
17,WNMN,12
18,KVYT,≤ 0.25
19,LFEI,≤ 0.25
20,FIVW,≤ 0.25
21,NDRS,≤ 0.25
22,RIDQ,≤ 0.25
23,SHSS,≤ 0.25
24,WSRD,≤ 0.25
25,IFGP,≤ 0.25
26,DNVF,≤ 0.25

row,Variant,enrichment ratio
1,QDAY,≤ 0.25
2,PRRP,≤ 0.25
3,QAMQ,44.4
4,MYSW,≤ 0.25
5,DRVG,≤ 0.25
6,SYYN,≤ 0.25
7,PCGP,≤ 0.25
8,WMYK,≤ 0.25
9,EYDW,≤ 0.25
10,WMNV,≤ 0.25
11,QSLT,≤ 0.25
12,KVCD,≤ 0.25
13,TYHE,≤ 0.25
14,WPFW,≤ 0.25
15,TIYE,≤ 0.25
16,GTYF,≤ 0.25
17,VPAV,≤ 0.25
18,HSFV,≤ 0.25
19,ENRQ,≤ 0.25
20,MFGV,≤ 0.25
21,MDKN,≤ 0.25
22,PEVI,≤ 0.25
23,VSIH,≤ 0.25
24,MAIQ,≤ 0.25
25,PIDS,≤ 0.25
26,WLAF,≤ 0.25

row,Variant,enrichment ratio
1,EEFM,≤ 0.25
2,GCIK,≤ 0.25
3,GQFL,≤ 0.25
4,YMPH,≤ 0.25
5,EEPV,≤ 0.25
6,SYKT,≤ 0.25
7,AYPA,≤ 0.25
8,FQFE,≤ 0.25
9,GLTC,≤ 0.25
10,IASP,≤ 0.25
11,TMPK,≤ 0.25
12,WSAY,≤ 0.25
13,VQID,≤ 0.25
14,TWAV,≤ 0.25
15,AFND,≤ 0.25
16,CLYC,≤ 0.25
17,WKVG,≤ 0.25
18,LAVH,≤ 0.25
19,MSCF,1.71
20,DECV,25.8
21,IVHL,≤ 0.25
22,LLGG,≤ 0.25
23,LMNA,≤ 0.25

# — a collection of fitness landscapes (doi:10.1126/science.1257360)
